Measurements: publication PMC4336329 (PLoS ONE, 2015)
Screen size: about 310,000 compounds; about 14,000 (4.5%) showed an effect of 50% or more. Effects have a minus sign here. This is one part of the list.

Target: human ether-à-go-go-related gene (hERG) potassium channel (human, UniProt Q12809)
Assay: primary screen, population patch clamp on CHO cells stably expressing hERG
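Also: peak tail current of the secondary pulse compared with the same well before compound.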

Sequence of human ether-à-go-go-related gene (hERG) potassium channel (Q12809 whole entry, looked up): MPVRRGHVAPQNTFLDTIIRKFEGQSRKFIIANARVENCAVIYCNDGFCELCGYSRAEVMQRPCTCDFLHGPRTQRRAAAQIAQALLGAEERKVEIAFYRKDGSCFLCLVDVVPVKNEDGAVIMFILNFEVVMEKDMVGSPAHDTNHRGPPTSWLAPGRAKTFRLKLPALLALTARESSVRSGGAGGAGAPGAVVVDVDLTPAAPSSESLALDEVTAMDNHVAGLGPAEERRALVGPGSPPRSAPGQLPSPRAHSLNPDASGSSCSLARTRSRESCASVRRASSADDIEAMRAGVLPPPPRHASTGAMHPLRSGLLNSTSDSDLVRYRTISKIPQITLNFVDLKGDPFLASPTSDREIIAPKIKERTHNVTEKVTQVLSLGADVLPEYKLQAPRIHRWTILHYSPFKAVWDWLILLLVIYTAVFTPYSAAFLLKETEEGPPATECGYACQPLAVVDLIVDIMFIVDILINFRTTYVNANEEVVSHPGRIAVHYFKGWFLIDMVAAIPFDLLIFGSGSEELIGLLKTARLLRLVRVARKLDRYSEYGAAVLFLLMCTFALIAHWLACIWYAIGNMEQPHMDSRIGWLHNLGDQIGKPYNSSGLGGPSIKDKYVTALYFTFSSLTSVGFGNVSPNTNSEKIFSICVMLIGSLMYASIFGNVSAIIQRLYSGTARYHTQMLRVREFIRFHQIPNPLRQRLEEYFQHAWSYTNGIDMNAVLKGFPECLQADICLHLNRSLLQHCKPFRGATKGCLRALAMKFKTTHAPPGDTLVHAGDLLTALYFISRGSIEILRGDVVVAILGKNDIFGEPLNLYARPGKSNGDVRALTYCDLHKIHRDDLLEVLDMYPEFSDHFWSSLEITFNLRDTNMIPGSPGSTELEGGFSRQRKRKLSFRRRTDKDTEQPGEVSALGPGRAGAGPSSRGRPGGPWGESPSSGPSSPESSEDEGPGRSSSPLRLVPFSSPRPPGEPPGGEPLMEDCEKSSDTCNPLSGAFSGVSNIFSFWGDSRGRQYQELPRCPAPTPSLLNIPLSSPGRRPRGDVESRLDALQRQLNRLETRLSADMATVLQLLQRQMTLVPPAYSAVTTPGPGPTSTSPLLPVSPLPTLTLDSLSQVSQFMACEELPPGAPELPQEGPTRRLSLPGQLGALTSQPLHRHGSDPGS

Structure (SMILES) | hERG current change (%, negative = inhibition) at 10uM
Cc1ccsc1/C=N/n1c(-c2ccncc2)n[nH]c1=S | 23.5%
Cc1cc(C)n2c(SCC(=O)NC3CCCCC3C)nnc2n1 (centres unmarked) | 29.5%
c1ccc(CSc2ccc3nnc(-c4ccccn4)n3n2)cc1 | -69.5%
COc1ccc(Cc2nc3ccccc3[nH]c2=O)cc1 | 13.8%
COC(=O)COc1ccc(S(=O)(=O)Nc2ccc(NC(C)=O)cc2)cc1 | 19.5%
CCC(CC)C(=O)N1CC(=O)Nc2ccc(F)cc2C1c1ccc(F)cc1 (centres unmarked) | -27.8%
CCC(=O)c1ccccc1OCCN1C(=O)NC(C)(C)C1=O | 0.954%
CCn1c(SCC(=O)Nc2cc(C)ccc2C)nc2c(c1=O)SC(C)C2 (centres unmarked) | -19.9%
CC(C)c1ccc(OCC(=O)N2CCN(C)CC2)c(Br)c1 | -15.9%
COCCNC(=S)N1CCN(S(C)(=O)=O)CC1 | 29.9%
CC(=O)N1c2ccc(S(=O)(=O)NCC3CCC(C(=O)Nc4ccc(C)cn4)CC3)cc2CC1C (centres unmarked) | 9.79%
C[C@@H](C(=O)N1CCNCC1)n1cc(CCCN=C(N)N)nn1.Cl | 10.3%
CC(O)[C@H]1CNC(=O)C(=O)N1CC1CCCCC1 (some centres unmarked) | 21.7%
CCN(c1ccccc1)S(=O)(=O)c1ccc(C(=O)Nc2cccc(C)n2)cc1 | -11.7%
O=C(CSc1nc2ccccc2c(=O)n1-c1ccccc1Cl)NC1CCS(=O)(=O)C1 (centres unmarked) | 6.55%
CCCOc1ccc(N2CC(C(=O)Nc3ccccn3)CC2=O)cc1 (centres unmarked) | -12.5%
COC(=O)C(C(=O)NCC1CCCO1)C1CCCC1 (centres unmarked) | 21.6%
COc1ccc(C(CNC(=O)CN2C(=O)NC3(CC(C)CC(C)(C)C3)C2=O)N2CCOCC2)cc1 (centres unmarked) | -0.983%
CC(C)N(c1ccccc1)c1ncnc(NCCC(=O)O)c1[N+](=O)[O-] | 6.51%
COc1cc(S(=O)(=O)Nc2ccc(C)cc2)ccc1N=Cc1c(C)[nH]n(-c2ccccc2)c1=O | 5.71%
CCC(=O)Nc1cnc(NC(=O)c2cccc(F)c2)cc1C | -29.8%
O=C1CCC([N+](=O)[O-])C(c2cccc3ccccc23)N1 (centres unmarked) | 12.6%
COC(=O)c1ccccc1NC(=O)CCCN1C(=O)C(c2ccccc2)Oc2cccnc21 (centres unmarked) | 27.3%

Structure (SMILES) | hERG current change (%, negative = inhibition) at 10uM
O=C(C[n+]1cc2ccccc2c2ccccc21)c1ccccc1.[Br-] | -73.8%
CCCc1ccc(OCC(O)CN2CCN(C(=O)OCC)CC2)cc1.Cl (centres unmarked) | -52.2%
CC(=O)N1N=C(C)CC1c1ccc(OCc2ccccc2)cc1 (centres unmarked) | -15.5%
Cc1ccc(Cn2cnc3ccccc32)cc1C | -12.1%
O=C(Nc1cccc(NC(=O)C2CC3CCCC(C2)C3=O)n1)C1CC2CCCC(C1)C2=O (centres unmarked) | 6.6%
Oc1c(C=NCc2ccncc2)sc2ccccc12 | -38.4%
Cc1cccc(OCCNC(=O)c2ncn[nH]2)c1 | -23.3%
CCCCn1c(N)c(N(CCOC)C(=O)CSc2nnc(-c3ccncc3)n2CCC)c(=O)[nH]c1=O | 6.82%
O=C1CCCc2nc(NCc3ccco3)ncc21 | 27.5%
NC(=O)Nc1ccc2c(c1)OCCO2 | -3.54%
CCOC(=O)c1c(NC(=S)NC(=O)/C=C/c2cccs2)sc(C)c1C | 12.8%
COc1ccc(N2CCN(C(c3cccs3)C(C)NC(=O)C(=O)N3CCCCC3)CC2)cc1 (centres unmarked) | -2.74%
Cn1nc(C(F)(F)F)c(-c2cccc(C(F)(F)F)c2)c1NC(=O)c1cccnc1 | -6.76%
O=C1NC(Cc2ccccc2)c2nc3ccc(Cl)cc3c(=O)n2-c2cc(Cl)ccc21 (centres unmarked) | 16.1%
Cc1cc([N+](=O)[O-])c(C(C)(C)C)cc1N | 5.18%
COc1ccc(C2=CC(=O)C[C@H](c3ccc(Cl)cc3)C2)cc1 | -1.31%
CC1CC(C)CN(C(=O)CCCn2c(=S)[nH]c3ccccc3c2=O)C1 (centres unmarked) | -3.01%
CC1(C)C(C=C(Cl)Cl)C1C(=O)OCc1cccc(Oc2ccccc2)c1 (centres unmarked) | 9.71%
Cc1ccc(N(C)S(=O)(=O)c2cccc(C(=O)NNC(=O)c3ccncc3)c2)cc1 | -6.47%
O=C(CN1C(=O)NC2(CCc3ccccc32)C1=O)c1c[nH]c2ccccc12 (centres unmarked) | 4.53%
O=C(COC(=O)c1cccc(Br)c1)NCCc1ccccc1 | 1.78%
CCOC(=O)N1CCN(S(=O)(=O)c2ccc3c(c2)CCN3C(=O)CC)CC1 | 1.55%
CN1/C(=C\C(=O)c2ccccc2Cl)c2ccccc2CC1(C)C | -17.5%

Structure (SMILES) | hERG current change (%, negative = inhibition) at 10uM
O=C(CSC1CCCCC1)Nc1ccccc1Br | 6.12%
CC(CNC(=O)C(C)(C)C)NC(=O)C(C)(C)C (centres unmarked) | -2.59%
O=C(C1CCCN1S(=O)(=O)c1cccc2cccnc12)N1CCc2ccccc2C1 (centres unmarked) | -57.5%
N#Cc1cc2c(=O)n3ccccc3nc2n(-c2ccc(Cl)cc2)c1=O | 5.19%
O=C(NCc1ccccc1)c1ccc(S(=O)(=O)N2CCCc3ccccc32)cc1 | 21.5%
CCOCCCNC(=O)CSc1nc2nc(C)c(Cc3ccccc3)c(C)n2n1 | 3%
Cc1ccc(NC(=O)CN2C(=O)S/C(=C\c3ccc(C(=O)O)cc3)C2=O)cc1 | 25%
O=C(CSc1nnc2ccccn12)c1ccc2c(c1)OCCO2 | 5.44%
O=C(c1ccc2nc(Cc3cccc(Cl)c3)oc2c1)N1CCOCC1 | -16.6%
COCCOC(=O)N/C=C\c1nc2ccccc2c(=O)[nH]1 | -0.645%
COc1ccc(/C=N/OCC(=O)OCC(=O)N(C)c2ccccc2)cc1 | 7.9%
O=C(CSc1nnc(NC(=O)c2c(F)cccc2F)s1)NC1CC1 | 21.9%
COc1ccc2nc(N3CCN(C(=O)c4ccc5ncsc5c4)CC3)sc2c1 | 14.1%
CCC(C)(C)n1nnnc1C(c1cc2ccc(C)cc2[nH]c1=O)N(Cc1cccnc1)Cc1ccco1 (centres unmarked) | -60.6%
CCCN(CCC)C(=O)CCS(=O)(=O)c1cccc2nsnc12 | -24.4%
COC(=O)c1ccc(NC(=O)N2CCOCC2)cc1 | 16.5%
CCOC(=O)N1CCN(S(=O)(=O)c2ccc(C(=O)Nc3nc4ccccc4s3)cc2)CC1 | -9.18%
O=C(c1cccs1)N1CCN(Cc2nc3ccccc3c(=O)[nH]2)CC1 | -33%
CCn1c(Cc2ccccc2)nnc1SCC(=O)Nc1ccc(OC)cc1 | 0.256%
COc1cc(C(=O)OCC(=O)NC(=O)NC2CCCCC2)cc(Cl)c1OC | -20.2%
O=C(CSc1nc2ccccc2c(=O)[nH]1)Nc1ccccc1O | -12.3%
Cn1nnnc1SCc1ccc(F)cc1 | 9.36%
O=C(NCc1ccco1)c1ccc(-c2cccc(Cl)c2)o1 | 4.25%

Structure (SMILES) | hERG current change (%, negative = inhibition) at 10uM
CCOC(=O)c1ccc(NC(=O)Cn2nnc(-c3ccc(F)cc3)n2)cc1 | 3.38%
COc1cccc(CNC(=O)C2CCCN(S(=O)(=O)N3CC(C)CC(C)C3)C2)c1 (centres unmarked) | 3.89%
CNC(=S)Nc1ccc(C23CC4CC(CC(C4)C2)C3)cc1 | 7.93%
COc1cc(NC(=O)CCc2nnc3ccc(N4CCC(C)CC4)nn23)cc(OC)c1 | 12.8%
CC(C)Cn1c(CN2CCN(c3ccccc3F)CC2)nc2c1c(=O)[nH]c(=O)n2C | -10.8%
O=C(CCC(=O)c1ccc(Oc2ccccc2)cc1)Nc1cccc(Cl)c1 | 4.54%
COc1ccc(-n2nnc3c(=O)n(CC(=O)N4CCCC4)cnc32)cc1 | -6.02%
COc1cc(C[C@@H]2C(=O)OC[C@H]2Cc2ccc(OC)c(OC)c2)ccc1O | 13.9%
CSc1nc(C)c(CCOCc2ccc(F)cc2)c(=O)[nH]1 | -1.27%
Cc1ccc2nc(-c3ccc(NS(=O)(=O)c4ccc(F)cc4)cc3)sc2c1 | 8.01%
CC1CC(C)CN(C(=O)COC(=O)c2ccc([N+](=O)[O-])o2)C1 (centres unmarked) | -4.31%
OCCCNc1ncnc2c1cnn2-c1ccc(Cl)cc1 | 16.9%
N#CCCNS(=O)(=O)c1ccc(C(=O)OCC2CCCCC2)cc1 | 19.7%
O=C(NCCC(=O)N1CCN(S(=O)(=O)c2ccccc2)CC1)c1ccc(Br)cc1 | -2.38%
CCN1CCCC1CNC(=O)CN(C)S(=O)(=O)c1ccc(Cl)cc1 (centres unmarked) | -21.6%
CCCCN(CCCC)C(=O)C1(P(=O)(c2ccccc2)c2ccccc2)CCC1 | -33.5%
Cc1ccc(OCC(=O)Oc2ccc(C(C)C)cc2)cc1 | 9.25%
Cc1ccc2nc(SCC(=O)Nc3cccc(S(=O)(=O)N(C)C)c3)[nH]c2c1 | 2.91%
C=CCNC(=S)NNC(=O)c1ccncc1 | 1.85%
CSc1nnc(NC(=O)c2nc(S(=O)(=O)Cc3ccc(C)cc3)ncc2Cl)s1 | -19%
